Reference: article PMC11659772
No constants are given. Whether binding was seen depends on the method and setting. In cells and extracts the contact can be indirect. Some binding calls cover weakened binding; strength is not graded here. For some of these results: Tags and fused reporters may be left off the sequences shown.

Amino acid sequences for entries named in this document (tags omitted).
UniProt O43524: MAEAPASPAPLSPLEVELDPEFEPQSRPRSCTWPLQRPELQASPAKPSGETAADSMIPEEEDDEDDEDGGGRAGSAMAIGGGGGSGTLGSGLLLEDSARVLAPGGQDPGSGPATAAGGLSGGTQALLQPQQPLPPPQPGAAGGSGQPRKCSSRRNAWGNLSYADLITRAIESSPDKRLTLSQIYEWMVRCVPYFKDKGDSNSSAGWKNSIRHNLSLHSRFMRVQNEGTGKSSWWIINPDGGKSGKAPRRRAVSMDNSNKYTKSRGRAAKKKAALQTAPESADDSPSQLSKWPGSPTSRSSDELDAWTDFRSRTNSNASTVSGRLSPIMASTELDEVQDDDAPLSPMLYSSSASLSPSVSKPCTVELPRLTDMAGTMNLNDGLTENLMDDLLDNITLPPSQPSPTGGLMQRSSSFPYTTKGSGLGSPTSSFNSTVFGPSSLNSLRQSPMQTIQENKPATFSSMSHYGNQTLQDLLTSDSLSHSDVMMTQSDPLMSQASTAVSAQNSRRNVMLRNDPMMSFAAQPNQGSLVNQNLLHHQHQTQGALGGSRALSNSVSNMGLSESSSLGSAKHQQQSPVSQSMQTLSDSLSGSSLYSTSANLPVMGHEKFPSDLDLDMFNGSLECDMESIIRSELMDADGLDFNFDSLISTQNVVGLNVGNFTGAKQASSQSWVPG
UniProt D3ZBQ1: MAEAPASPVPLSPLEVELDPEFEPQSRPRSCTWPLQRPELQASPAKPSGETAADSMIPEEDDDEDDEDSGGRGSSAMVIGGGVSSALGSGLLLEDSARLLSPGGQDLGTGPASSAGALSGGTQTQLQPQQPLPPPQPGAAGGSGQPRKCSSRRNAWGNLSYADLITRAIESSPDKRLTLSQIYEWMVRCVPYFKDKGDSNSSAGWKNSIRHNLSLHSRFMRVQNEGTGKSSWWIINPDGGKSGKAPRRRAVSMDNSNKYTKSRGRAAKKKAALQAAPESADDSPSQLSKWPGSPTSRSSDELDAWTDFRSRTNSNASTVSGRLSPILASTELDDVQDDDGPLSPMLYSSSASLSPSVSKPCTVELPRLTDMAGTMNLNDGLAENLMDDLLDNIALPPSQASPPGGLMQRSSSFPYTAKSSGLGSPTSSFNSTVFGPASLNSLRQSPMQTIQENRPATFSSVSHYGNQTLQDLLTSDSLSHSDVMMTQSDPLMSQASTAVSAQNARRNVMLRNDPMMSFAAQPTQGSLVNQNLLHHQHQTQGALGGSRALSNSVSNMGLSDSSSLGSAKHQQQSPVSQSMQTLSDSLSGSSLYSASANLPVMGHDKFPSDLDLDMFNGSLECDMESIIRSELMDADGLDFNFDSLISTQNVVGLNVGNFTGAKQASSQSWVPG

T1: Flag-tagged EEPD1 (endonuclease/exonuclease/phosphatase family domain-containing 1), full length (UniProt Q7L9B9)
T1 sequence: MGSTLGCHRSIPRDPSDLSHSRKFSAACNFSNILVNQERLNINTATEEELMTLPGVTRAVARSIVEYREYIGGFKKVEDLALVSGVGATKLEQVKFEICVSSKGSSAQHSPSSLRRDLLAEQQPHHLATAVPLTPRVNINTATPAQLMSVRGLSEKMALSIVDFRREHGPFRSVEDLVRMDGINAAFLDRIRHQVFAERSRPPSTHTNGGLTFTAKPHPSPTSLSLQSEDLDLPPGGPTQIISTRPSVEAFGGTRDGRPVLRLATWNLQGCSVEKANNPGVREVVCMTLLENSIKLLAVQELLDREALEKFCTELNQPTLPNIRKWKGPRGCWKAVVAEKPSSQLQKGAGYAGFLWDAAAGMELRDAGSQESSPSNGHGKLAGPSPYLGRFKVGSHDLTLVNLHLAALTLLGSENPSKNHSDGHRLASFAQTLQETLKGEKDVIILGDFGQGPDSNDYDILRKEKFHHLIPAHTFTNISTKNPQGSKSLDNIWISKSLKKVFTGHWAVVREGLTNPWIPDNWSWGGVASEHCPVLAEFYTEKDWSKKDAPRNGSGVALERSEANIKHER


What was measured:
[1] = biological target: T1, Flag-tagged EEPD1 (endonuclease/exonuclease/phosphatase family domain-containing 1), full length; test: co-IP; HEK293T cells cotransfected with HA-FOXO3A and Flag-EEPD1; lysate in Pierce IP lysis buffer; anti-Flag Co-IP beads, 4°C, 12 h; washed with PBST; western blot with anti-Flag and anti-HA
[2] = biological target: HA-tagged FOXO3A (UniProt O43524); test: co-IP; HEK293T cells (the text says HEK293A for the deletion mutants) cotransfected with HA-FOXO3A and Flag-EEPD1 full length or deletion mutants; lysate in Pierce IP lysis buffer; anti-HA Co-IP beads, 4°C, 12 h; washed with PBST; western blot with anti-Flag and anti-HA
[3] = biological target: FOXO3A, endogenous in neonatal rat cardiomyocytes (rat (endogenous in NRCMs)) (UniProt D3ZBQ1); test: proximity ligation; in situ PLA in fixed, permeabilised neonatal rat cardiomyocytes with anti-FOXO3A and anti-EEPD1 antibodies; confocal microscopy

| Molecule | binding [2] | also measured |
| --- | --- | --- |
| HA-tagged FOXO3A (from UniProt O43524 1-673) | – | binding [1]: binds |
| Flag-EEPD1 region 1 deletion mutant (domain or fragment, UniProt Q7L9B9 21-569) SRKFSAACNFSNILVNQERLNINTATEEELMTLPGVTRAVARSIVEYREYIGGFKKVEDLALVSGVGATKLEQVKFEICVSSKGSSAQHSPSSLRRDLLAEQQPHHLATAVPLTPRVNINTATPAQLMSVRGLSEKMALSIVDFRREHGPFRSVEDLVRMDGINAAFLDRIRHQVFAERSRPPSTHTNGGLTFTAKPHPSPTSLSLQSEDLDLPPGGPTQIISTRPSVEAFGGTRDGRPVLRLATWNLQGCSVEKANNPGVREVVCMTLLENSIKLLAVQELLDREALEKFCTELNQPTLPNIRKWKGPRGCWKAVVAEKPSSQLQKGAGYAGFLWDAAAGMELRDAGSQESSPSNGHGKLAGPSPYLGRFKVGSHDLTLVNLHLAALTLLGSENPSKNHSDGHRLASFAQTLQETLKGEKDVIILGDFGQGPDSNDYDILRKEKFHHLIPAHTFTNISTKNPQGSKSLDNIWISKSLKKVFTGHWAVVREGLTNPWIPDNWSWGGVASEHCPVLAEFYTEKDWSKKDAPRNGSGVALERSEANIKHER | binds | – |
| Flag-EEPD1 HhH domain deletion mutant (protein, UniProt Q7L9B9) MGSTLGCHRSIPRDPSDLSHSRKFSAACNFSNILVNQREYIGGFKKVEDLALVSGVGATKLEQVKFEICVSSKGSSAQHSPSSLRRDLLAEQQPHHLATAVPLTPRVNINTATPAQLMSVRGLSEKMALSIVDFRREHGPFRSVEDLVRMDGINAAFLDRIRHQVFAERSRPPSTHTNGGLTFTAKPHPSPTSLSLQSEDLDLPPGGPTQIISTRPSVEAFGGTRDGRPVLRLATWNLQGCSVEKANNPGVREVVCMTLLENSIKLLAVQELLDREALEKFCTELNQPTLPNIRKWKGPRGCWKAVVAEKPSSQLQKGAGYAGFLWDAAAGMELRDAGSQESSPSNGHGKLAGPSPYLGRFKVGSHDLTLVNLHLAALTLLGSENPSKNHSDGHRLASFAQTLQETLKGEKDVIILGDFGQGPDSNDYDILRKEKFHHLIPAHTFTNISTKNPQGSKSLDNIWISKSLKKVFTGHWAVVREGLTNPWIPDNWSWGGVASEHCPVLAEFYTEKDWSKKDAPRNGSGVALERSEANIKHER | no binding | – |
| EEPD1, endogenous in neonatal rat cardiomyocytes (protein, UniProt Q5XI74 1-569) MGSTLGCHRSIPRDPSDLSHSRKFSAACNFSNILVNQERLNINTATEEELMTLPGVTRAVARSIVEYREYIGGFKKVEDLALVSGVGATKLEQVKFEICVSSKGNSAQHSPSSLRRDLLAEQQPHHLATTVPLTPRVNINTATLAQLMSVRGLSEKMAVSIVDYRREHGPFRSVEDLVRMDGINAAFLDRIRHQVFAERSRPPSTHTNGGLTFTAKPHPSPTSLSLQSEDLDLPPGGPTQIISMRPSVEAFGGMRDGRPVFRLATWNLQGCSVEKANNPGVREVVCMTLLENSIKLLAVQELLDKEALEKFCTELNQPILPNIRKWKGPRGCWRSIVAEKPSSQLQKGPCYSGFLWDTAANVELRDIPGQESSPSNGHAKTVGPSPFLARFKVGSNDLTLVNLQLTALALPGVENSSKNHSDGHRLLNFALTLQETLKGEKDVVILGDFGQGPDSSDYDILRREKFHHLIPAHTFTNISTRNPQGSKSVDNIWISKSLKKVFTGHWAVVREGLTNPWIPDNWSWGGVASEHCPVLAELYMEKDWSKKEVPRNGNGVTLEPSEANVKHER | – | binding [3]: binds |
| Flag-EEPD1 region 2 deletion mutant (protein, UniProt Q7L9B9) MGSTLGCHRSIPRDPSDLSHSRKFSAACNFSNILVNQERLNINTATEEELMTLPGVTRAVARSIVEYREYIGGFKKVEDLALVSGVGATKLEQVKFEICVSSKGSSAQHSPSSLRRDLLAEQQPHHLATAVPLTPRVNINTATPAQLMSVRGLSEKMALSIVDFRREHGPFRSVEDLVRMDGINAAFLDRIRHQVFAERLQSEDLDLPPGGPTQIISTRPSVEAFGGTRDGRPVLRLATWNLQGCSVEKANNPGVREVVCMTLLENSIKLLAVQELLDREALEKFCTELNQPTLPNIRKWKGPRGCWKAVVAEKPSSQLQKGAGYAGFLWDAAAGMELRDAGSQESSPSNGHGKLAGPSPYLGRFKVGSHDLTLVNLHLAALTLLGSENPSKNHSDGHRLASFAQTLQETLKGEKDVIILGDFGQGPDSNDYDILRKEKFHHLIPAHTFTNISTKNPQGSKSLDNIWISKSLKKVFTGHWAVVREGLTNPWIPDNWSWGGVASEHCPVLAEFYTEKDWSKKDAPRNGSGVALERSEANIKHER | no binding | – |

Second part, led by results:

| binding [2] | Molecule | also measured |
| --- | --- | --- |
| binds | Flag-tagged EEPD1 (endonuclease/exonuclease/phosphatase family domain-containing 1), full length (protein, UniProt Q7L9B9 1-569) MGSTLGCHRSIPRDPSDLSHSRKFSAACNFSNILVNQERLNINTATEEELMTLPGVTRAVARSIVEYREYIGGFKKVEDLALVSGVGATKLEQVKFEICVSSKGSSAQHSPSSLRRDLLAEQQPHHLATAVPLTPRVNINTATPAQLMSVRGLSEKMALSIVDFRREHGPFRSVEDLVRMDGINAAFLDRIRHQVFAERSRPPSTHTNGGLTFTAKPHPSPTSLSLQSEDLDLPPGGPTQIISTRPSVEAFGGTRDGRPVLRLATWNLQGCSVEKANNPGVREVVCMTLLENSIKLLAVQELLDREALEKFCTELNQPTLPNIRKWKGPRGCWKAVVAEKPSSQLQKGAGYAGFLWDAAAGMELRDAGSQESSPSNGHGKLAGPSPYLGRFKVGSHDLTLVNLHLAALTLLGSENPSKNHSDGHRLASFAQTLQETLKGEKDVIILGDFGQGPDSNDYDILRKEKFHHLIPAHTFTNISTKNPQGSKSLDNIWISKSLKKVFTGHWAVVREGLTNPWIPDNWSWGGVASEHCPVLAEFYTEKDWSKKDAPRNGSGVALERSEANIKHER | – |
| binds | Flag-EEPD1 region 3 deletion mutant (domain or fragment, UniProt Q7L9B9 1-544) MGSTLGCHRSIPRDPSDLSHSRKFSAACNFSNILVNQERLNINTATEEELMTLPGVTRAVARSIVEYREYIGGFKKVEDLALVSGVGATKLEQVKFEICVSSKGSSAQHSPSSLRRDLLAEQQPHHLATAVPLTPRVNINTATPAQLMSVRGLSEKMALSIVDFRREHGPFRSVEDLVRMDGINAAFLDRIRHQVFAERSRPPSTHTNGGLTFTAKPHPSPTSLSLQSEDLDLPPGGPTQIISTRPSVEAFGGTRDGRPVLRLATWNLQGCSVEKANNPGVREVVCMTLLENSIKLLAVQELLDREALEKFCTELNQPTLPNIRKWKGPRGCWKAVVAEKPSSQLQKGAGYAGFLWDAAAGMELRDAGSQESSPSNGHGKLAGPSPYLGRFKVGSHDLTLVNLHLAALTLLGSENPSKNHSDGHRLASFAQTLQETLKGEKDVIILGDFGQGPDSNDYDILRKEKFHHLIPAHTFTNISTKNPQGSKSLDNIWISKSLKKVFTGHWAVVREGLTNPWIPDNWSWGGVASEHCPVLAEFYTEKDW | – |
